Publication PMC7076219 (2020)
Where “and” joins values, the source holds several entries; their conditions need not be identical. Equal values may be shown once.

Columns and labels:
[1] = target: T1, CD44/HCELL (hematopoietic cell E- and/or L-selectin ligand) (human (endogenous in KG1a), UniProt P16070-12 21-361); test: SPR
[2] = target: T1, CD44/HCELL (hematopoietic cell E- …); test: SPR; remark: listed apart in the source

Kd [1]: 0.19 µM
koff [2]: 0.000214 s⁻¹ and 0.00014 s⁻¹
B1: E-S6-IgG (mouse E-selectin extracellular region fused to the Fc region of human IgG1, from silkworm) (Fc fusion)
chain: WYYNASSELMTYDEASAYCQRDYTHLVAIQNKEEINYLNSNLKHSPSYYWIGIRKVNNVWIWVGTGKPLTEEAQNWAPGEPNNKQRNEDCVEIYIQRTKDSGMWNDERCNKKKLALCYTASCTNASCSGHGECIETINSYTCKCHPGFLGPNCEQAVTCKPQEHPDYGSLNCSHPFGPFSYNSSCSFGCKRGYLPSSMETTVRCTSSGEWSAPAPACHVVECEALTHPAHGIRKCSSNPGSYPWNTTCTFDCVEGYRRVGAQNLQCTSSGIWDNETPSCKAVTCDAIPQPQNGFVSCSHSTAGELAFKSSCNFTCEQSFTLQGPAQVECSAQGQWTPQIPVCKAVQCEALSAPQQGNMKCLPSASGPFQNGSSCEFSCEEGFELKGSRRLQCGPRGEWDSKKPTCSAVKCDDVPRPQNGVMECAHATTGEFTYKSSCAFQCNEGFSLHGSAQLECTSQGKWTQEVPSCQVVQCPSLDVPGKMNMSCSGTAVFGTVCEFTCPDDWTLNGSAVLTCGATGRWSGMPPTCEAPVSPTR[human IgG1 Fc with C220S (EU numbers) not given here]
